# From paper PMC12820563, “FoxP3 forms a head-to-head dimer in vivo and stabilizes its multimerization on adjacent microsatellites”
# The list shows a part of the results.
# Biological target: T1, MBP-FoxP1dN (Mus musculus, UniProt P58462 326-579)
# T1 sequence: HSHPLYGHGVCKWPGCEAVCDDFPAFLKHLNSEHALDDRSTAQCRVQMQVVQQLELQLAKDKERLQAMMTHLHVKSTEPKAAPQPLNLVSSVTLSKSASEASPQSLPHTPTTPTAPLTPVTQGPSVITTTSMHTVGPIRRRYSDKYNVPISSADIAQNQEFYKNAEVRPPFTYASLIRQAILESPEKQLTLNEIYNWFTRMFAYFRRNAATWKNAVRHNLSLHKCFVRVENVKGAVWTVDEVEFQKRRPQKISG
# Assay: PD-seq (MBP pull-down with sequencing); 20 mM Tris-HCl pH 7.5, 100 mM NaCl, 1.5 mM MgCl2, 0.4 uM protein, 0.1 uM dsDNA library, 30 min, room temperature, amylose pull-down; high values mean tight binding
# Conditions: protein: recombinant; tags: His6-MBP; chain copies: 2; dsDNA, one strand shown
# In short: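 Binding is given as reads-per-million enrichment, pull-down over input, with replicates pooled. The bait was an N-terminus-lacking mouse FoxP3 or FoxP1 fragment with a His6-MBP tag, expressed in E. coli and used at 0.4 µM with 0.1 µM Klenow-filled degenerate double-stranded DNA library for 30 min at room temperature in Tris pH 7.5 buffer with NaCl and MgCl2. Amylose resin pull-down with three washes was followed by proteinase K release, PCR barcoding and Illumina sequencing.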
row,Sequence,binding signal
1,GATGATTGTTCTCCCAGCTGATGAATTACCGGAGTCGAGTAAACAAATTTTCCTAATCTTTCTGTTCAAGCGCCATCTAC,0.847 RPM ratio (pull-down/input)
2,GATGATTGTTCTCCCAGCTGATGAATTAACATTTTCGAGTAAACAAATTTTCCTAATCTTTCTGTTCAAGCGCCATCTAC,1.21 RPM ratio (pull-down/input)
3,GATGATTGTTCTCCCAGCTGATGAATTGAGGATTTCGAGTAAACAAATTTTCCTAATCTTTCTGTTCAAGCGCCATCTAC,0.811 RPM ratio (pull-down/input)
4,GATGATTGTTCTCCCAGCTGATGAATTACGGATGTCGAGTAAACAAATTTTCCTAATCTTTCTGTTCAAGCGCCATCTAC,0.941 RPM ratio (pull-down/input)
5,GATGATTGTTCTCCCAGCTGATGAATTAAATGCGTCGAGTAAACAAATTTTCCTAATCTTTCTGTTCAAGCGCCATCTAC,1.43 RPM ratio (pull-down/input)
6,GATGATTGTTCTCCCAGCTGATGAATTGCTGGAGTCGAGTAAACAAATTTTCCTAATCTTTCTGTTCAAGCGCCATCTAC,0.902 RPM ratio (pull-down/input)
7,GATGATTGTTCTCCCAGCTGATGAATTAACCATTTCGAGTAAACAAATTTTCCTAATCTTTCTGTTCAAGCGCCATCTAC,0.907 RPM ratio (pull-down/input)
8,GATGATTGTTCTCCCAGCTGATGAATTGAATAAATCGAGTAAACAAATTTTCCTAATCTTTCTGTTCAAGCGCCATCTAC,1.12 RPM ratio (pull-down/input)
9,GATGATTGTTCTCCCAGCTGATGAATTCTTATCCTCGAGTAAACAAATTTTCCTAATCTTTCTGTTCAAGCGCCATCTAC,0.857 RPM ratio (pull-down/input)
10,GATGATTGTTCTCCCAGCTGATGAATTGCTAGTCTCGAGTAAACAAATTTTCCTAATCTTTCTGTTCAAGCGCCATCTAC,1.02 RPM ratio (pull-down/input)
11,GATGATTGTTCTCCCAGCTGATGAATTAGTTTATTCGAGTAAACAAATTTTCCTAATCTTTCTGTTCAAGCGCCATCTAC,1.3 RPM ratio (pull-down/input)
12,GATGATTGTTCTCCCAGCTGATGAATTGTGGCCTTCGAGTAAACAAATTTTCCTAATCTTTCTGTTCAAGCGCCATCTAC,1.13 RPM ratio (pull-down/input)
13,GATGATTGTTCTCCCAGCTGATGAATTAGTATCTTCGAGTAAACAAATTTTCCTAATCTTTCTGTTCAAGCGCCATCTAC,1.09 RPM ratio (pull-down/input)
14,GATGATTGTTCTCCCAGCTGATGAATTGGACCTGTCGAGTAAACAAATTTTCCTAATCTTTCTGTTCAAGCGCCATCTAC,0.77 RPM ratio (pull-down/input)
15,GATGATTGTTCTCCCAGCTGATGAATTTAAGCTGTCGAGTAAACAAATTTTCCTAATCTTTCTGTTCAAGCGCCATCTAC,0.937 RPM ratio (pull-down/input)
16,GATGATTGTTCTCCCAGCTGATGAATTCTGGGACTCGAGTAAACAAATTTTCCTAATCTTTCTGTTCAAGCGCCATCTAC,0.753 RPM ratio (pull-down/input)

row,Sequence,binding signal
1,GATGATTGTTCTCCCAGCTGATGAATTGAGTCACTCGAGTAAACAAATTTTCCTAATCTTTCTGTTCAAGCGCCATCTAC,0.924 RPM ratio (pull-down/input)
2,GATGATTGTTCTCCCAGCTGATGAATTCGCCACTTCGAGTAAACAAATTTTCCTAATCTTTCTGTTCAAGCGCCATCTAC,0.857 RPM ratio (pull-down/input)
3,GATGATTGTTCTCCCAGCTGATGAATTTTCCTCGTCGAGTAAACAAATTTTCCTAATCTTTCTGTTCAAGCGCCATCTAC,0.898 RPM ratio (pull-down/input)
4,GATGATTGTTCTCCCAGCTGATGAATTAGCTCTGTCGAGTAAACAAATTTTCCTAATCTTTCTGTTCAAGCGCCATCTAC,0.794 RPM ratio (pull-down/input)
5,GATGATTGTTCTCCCAGCTGATGAATTCTAGTACTCGAGTAAACAAATTTTCCTAATCTTTCTGTTCAAGCGCCATCTAC,0.84 RPM ratio (pull-down/input)
6,GATGATTGTTCTCCCAGCTGATGAATTCGGTTGTTCGAGTAAACAAATTTTCCTAATCTTTCTGTTCAAGCGCCATCTAC,1.21 RPM ratio (pull-down/input)
7,GATGATTGTTCTCCCAGCTGATGAATTTAAATGTTCGAGTAAACAAATTTTCCTAATCTTTCTGTTCAAGCGCCATCTAC,1.03 RPM ratio (pull-down/input)
8,GATGATTGTTCTCCCAGCTGATGAATTGCGTAACTCGAGTAAACAAATTTTCCTAATCTTTCTGTTCAAGCGCCATCTAC,1.14 RPM ratio (pull-down/input)
9,GATGATTGTTCTCCCAGCTGATGAATTGGAAATATCGAGTAAACAAATTTTCCTAATCTTTCTGTTCAAGCGCCATCTAC,0.978 RPM ratio (pull-down/input)
10,GATGATTGTTCTCCCAGCTGATGAATTATGCTACTCGAGTAAACAAATTTTCCTAATCTTTCTGTTCAAGCGCCATCTAC,1.09 RPM ratio (pull-down/input)
11,GATGATTGTTCTCCCAGCTGATGAATTTCCGAATTCGAGTAAACAAATTTTCCTAATCTTTCTGTTCAAGCGCCATCTAC,0.882 RPM ratio (pull-down/input)
12,GATGATTGTTCTCCCAGCTGATGAATTGCGACGATCGAGTAAACAAATTTTCCTAATCTTTCTGTTCAAGCGCCATCTAC,0.98 RPM ratio (pull-down/input)
13,GATGATTGTTCTCCCAGCTGATGAATTATCCCGATCGAGTAAACAAATTTTCCTAATCTTTCTGTTCAAGCGCCATCTAC,0.896 RPM ratio (pull-down/input)
14,GATGATTGTTCTCCCAGCTGATGAATTGCTTGTATCGAGTAAACAAATTTTCCTAATCTTTCTGTTCAAGCGCCATCTAC,1.38 RPM ratio (pull-down/input)
15,GATGATTGTTCTCCCAGCTGATGAATTGATGCAATCGAGTAAACAAATTTTCCTAATCTTTCTGTTCAAGCGCCATCTAC,1.96 RPM ratio (pull-down/input)
